Drawing on patent US8022188B2, “Immunosuppressant binding antibodies and methods of obtaining and using same” (Abbott Laboratories, priority 2006, dated 2011), this text covers Kd for one molecule.

This assay can be described thus: Equilibrium dissociation constant of 29-56-14 scFv expressed on yeast cells. It counts as binding. To be noted: read-out: KD for bt-CsA. The protocol:
Equilibrium dissociation constant (KD) for bt-CsA antigen was determined in a physiological diluent (composed of PBS, pH 7.4 and 1% BSA). Yeast clones induced for scFv expression were mixed with various concentrations of bt-CsA and allowed to reach equilibrium (4-18 hrs) in either (a) a physiological diluent (composed of PBS, pH 7.4 and 1% BSA); and (b) a selection diluent (composed of PBS, 1% BSA and 10% methanol), chilled on ice, washed, and labeled for flow cytometric measurement. The antibody-normalized, antigen-binding mean fluorescence intensity was plotted against antigen concentration and a non-linear least squares fit (y=m1+m2*m0/(m3+m0)) was used to determine KD. […] The KD value for bt-CsA was used for screening of mutagenic libraries in the presence of excess competitor.

Like-named read-outs stand apart in the source and are kept apart here.

B1: WT CsA 29-56-14 scFv: unmutated scFv from anti-CsA 29-56-14 mouse hybridoma (Novartis), displayed on yeast (antibody, V domains shown)
VH: EVQLQQSGPDLVKPGASMKISCKASGYSFTSYTLNWVRQSPGKNLEWIGLIYPYNGGTNYNQKFNDKATFTVDKSSSTAYMELLSLTSEDSAVYYCARVGYYGTTPYYAMDYWGQGTSVTVSS
VL: DIVLTQSPASLAVSLGQRATISCRASKSVDYYGISFMNWFQQKPGQPPKLLIYAASSQGSGVPARFSGSGSGTDFSLSIHPMEEDDTAMYFCQHSKEVPWTFGGGTNLEIKRA
modifications: scFv linker missing; Mouse; CDS (1)..(369); CDS (1)..(339)
For B1, the Kd (physiological diluent (PBS pH 7.4, 1% BSA)) was 0.56 nM and the equilibrium dissociation constant (Kd) (selection diluent (PBS, 1% BSA, 10% methanol)) amounted to 2 nM.
